# Measured values: the supplement of paper PMC8728848
# The list shows a part of the results.
# B1: Na-CTL-1 (Necator americanus) (protein)
# chain: MQRSFLLLLVVLAGAWAVNTTIPLKLMGGFTPMKYQCVGRVSDIWADVLFLIESSDMITKSGFRQVIAFITATTKKMTIGQDEKQTRVGFITYGEEAKLIYDLDHWRSTEKLSDLVQKIPYVKSSGTNIAAAIALANKVFNSPTHRPNVPKVMVIVANGLKKGSQNPIPVATAFKDFGGIIITIEYTQYDNIQVPILKKIASEGYNIRSNDEDFSVRTLTNMLLQANCFCPDHYVPFRVNNPEFGCFVTAKIPSMWRDAAEMCRAVEEGKLVKVENEEKAAFIMKLVGPKKEAWIGLRYYGNKFQWTDGTKLNADDFNLWPEDIKELNGPHCVSMYQDQKDKKYYWRAGKCLEDMRYVCEVQPCSASNYCSEPVFMYRQKHRALLPAPPPPPN
# What was measured:
# Test in all cases: glycan array binding signal (z-score within array); higher = stronger binding
# Conditions in all cases: glycan notation: IUPAC condensed, linker removed
# [1] = target: Gal(b1-4)GlcNAc(b1-3)Gal(b1-4)GlcNAc(b1-6)[Gal(b1-3)]GalNAc
# Outline: (§1)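 From the Consortium for Functional Glycomics database, 3228 arrays were curated, keeping only those whose protein sequence was available. Binding is given as a within-array Z-score averaged across arrays sharing a protein sequence and across linkers. Negative Z-scores can be read as non-binding.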
# [2] = target: Gal(b1-4)GlcNAc(b1-3)Gal(b1-4)[Fuc(a1-3)]GlcNAc(b1-3)Gal(b1-4)[Fuc(a1-3)]GlcNAc
# Outline: as §1
# [3] = target: Gal(b1-4)GlcNAc(b1-3)GalNAc
# Outline: as §1
# [4] = target: Gal(b1-4)GlcNAc(b1-3)[Fuc(a1-3)GlcNAc(b1-6)]Gal(b1-4)Glc
# Outline: as §1
# [5] = target: Gal(b1-4)GlcNAc(b1-3)[Gal(b1-4)GlcNAc(b1-6)]Gal(b1-4)GlcNAc
# Outline: as §1
# [6] = target: Gal(b1-4)GlcNAc(b1-3)[GlcNAc(b1-6)]Gal(b1-4)GlcNAc
# Outline: as §1
# [7] = target: Gal(b1-4)GlcNAc(b1-6)Gal(b1-4)GlcNAc
# Outline: as §1
# [8] = target: Gal(b1-4)GlcNAc(b1-6)GalNAc
# Outline: as §1
# [9] = target: Gal(b1-4)GlcNAc(b1-6)[Gal(b1-3)]GalNAc
# Outline: as §1
# [10] = target: Gal(b1-4)GlcNAc(b1-6)[Gal(b1-4)GlcNAc(b1-3)]GalNAc
# Outline: as §1
# Gal(b1-4)GlcNAc6P = target: Gal(b1-4)GlcNAc6P
# Outline: as §1
# Gal(b1-6)Gal = target: Gal(b1-6)Gal
# Outline: as §1
# Gal3S(b1-3)GalNAc = target: Gal3S(b1-3)GalNAc
# Outline: as §1
# Gal3S(b1-3)GlcNAc = target: Gal3S(b1-3)GlcNAc
# Outline: as §1
# [11] = target: Gal3S(b1-3)[Fuc(a1-4)]GlcNAc
# Outline: as §1
# Gal3S(b1-4)Glc = target: Gal3S(b1-4)Glc
# Outline: as §1
# Gal3S(b1-4)Glc6S = target: Gal3S(b1-4)Glc6S
# Outline: as §1
# Gal3S(b1-4)GlcNAc = target: Gal3S(b1-4)GlcNAc
# Outline: as §1
# [12] = target: Gal3S(b1-4)[Fuc(a1-3)]Glc6S
# Outline: as §1
# [13] = target: Gal3S(b1-4)[Fuc(a1-3)]GlcNAc
# Outline: as §1
# [14] = target: Gal3S(b1-4)[Fuc(a1-3)]GlcNAc6S
# Outline: as §1
# Gal3S4S(b1-4)GlcNAc = target: Gal3S4S(b1-4)GlcNAc
# Outline: as §1
# Gal3S6S(b1-4)GlcNAc = target: Gal3S6S(b1-4)GlcNAc
# Outline: as §1
# Gal3S6S(b1-4)GlcNAc6S = target: Gal3S6S(b1-4)GlcNAc6S
# Outline: as §1
# Gal4S(b1-4)GlcNAc = target: Gal4S(b1-4)GlcNAc
# Outline: as §1
# Gal4S6S(b1-4)GlcNAc = target: Gal4S6S(b1-4)GlcNAc
# Outline: as §1
# Gal6P(b1-4)GlcNAc = target: Gal6P(b1-4)GlcNAc
# Outline: as §1
# Gal6S(b1-3)GlcNAc = target: Gal6S(b1-3)GlcNAc
# Outline: as §1
# Gal6S(b1-3)GlcNAc6S = target: Gal6S(b1-3)GlcNAc6S
# Outline: as §1
# Gal6S(b1-4)Glc = target: Gal6S(b1-4)Glc
# Outline: as §1
# Gal6S(b1-4)Glc6S = target: Gal6S(b1-4)Glc6S
# Outline: as §1
# Gal6S(b1-4)GlcNAc = target: Gal6S(b1-4)GlcNAc
# Outline: as §1
# Gal6S(b1-4)GlcNAc6S = target: Gal6S(b1-4)GlcNAc6S
# Outline: as §1
# GalNAc(a1-3)Gal = target: GalNAc(a1-3)Gal
# Outline: as §1
# GalNAc(a1-3)GalNAc = target: GalNAc(a1-3)GalNAc
# Outline: as §1
# [15] = target: GalNAc(a1-3)GalNAc(b1-3)Gal(a1-4)Gal(b1-4)Glc
# Outline: as §1
# [16] = target: GalNAc(a1-3)GalNAc(b1-3)Gal(a1-4)Gal(b1-4)GlcNAc
# Outline: as §1
binder,measurement,setting,value
B1,glycan array binding signal (z-score),[1],-0.048
same,glycan array binding signal (z-score),[2],-0.29
same,glycan array binding signal (z-score),[3],-0.177
same,glycan array binding signal (z-score),[4],-0.16
same,glycan array binding signal (z-score),[5],-0.557
same,glycan array binding signal (z-score),[6],-0.3
same,glycan array binding signal (z-score),[7],-0.042
same,glycan array binding signal (z-score),[8],0.111
same,glycan array binding signal (z-score),[9],-0.234
same,glycan array binding signal (z-score),[10],0.069
same,glycan array binding signal (z-score),Gal(b1-4)GlcNAc6P,-0.23
same,glycan array binding signal (z-score),Gal(b1-6)Gal,-0.175
same,glycan array binding signal (z-score),Gal3S(b1-3)GalNAc,-0.182
same,glycan array binding signal (z-score),Gal3S(b1-3)GlcNAc,0.98
same,glycan array binding signal (z-score),[11],-0.487
same,glycan array binding signal (z-score),Gal3S(b1-4)Glc,0.021
same,glycan array binding signal (z-score),Gal3S(b1-4)Glc6S,0.514
same,glycan array binding signal (z-score),Gal3S(b1-4)GlcNAc,0.593
same,glycan array binding signal (z-score),[12],0.797
same,glycan array binding signal (z-score),[13],0.136
same,glycan array binding signal (z-score),[14],0.931
same,glycan array binding signal (z-score),Gal3S4S(b1-4)GlcNAc,-0.537
same,glycan array binding signal (z-score),Gal3S6S(b1-4)GlcNAc,0.472
same,glycan array binding signal (z-score),Gal3S6S(b1-4)GlcNAc6S,0.998
same,glycan array binding signal (z-score),Gal4S(b1-4)GlcNAc,-0.434
same,glycan array binding signal (z-score),Gal4S6S(b1-4)GlcNAc,0.292
same,glycan array binding signal (z-score),Gal6P(b1-4)GlcNAc,0.128
same,glycan array binding signal (z-score),Gal6S(b1-3)GlcNAc,0.848
same,glycan array binding signal (z-score),Gal6S(b1-3)GlcNAc6S,-0.291
same,glycan array binding signal (z-score),Gal6S(b1-4)Glc,0.755
same,glycan array binding signal (z-score),Gal6S(b1-4)Glc6S,0.075
same,glycan array binding signal (z-score),Gal6S(b1-4)GlcNAc,0.607
same,glycan array binding signal (z-score),Gal6S(b1-4)GlcNAc6S,-0.321
same,glycan array binding signal (z-score),GalNAc(a1-3)Gal,-0.696
same,glycan array binding signal (z-score),GalNAc(a1-3)GalNAc,0.002
same,glycan array binding signal (z-score),[15],-0.099
same,glycan array binding signal (z-score),[16],-0.25
